# The campaign covered roughly 150,000 compounds. About 540 (0.36%) showed an effect of 50% or more. The list shows a part of the results.
# Tested on: Plasmodium falciparum
# Assay: Primary screen in NF54 nanoGlo assay, in single point, at 2uM, 72h; a lower Z score goes with more inhibition
# Type: functional, Erythrocyte
# Details: timepoint 72 hour
SMILES,% Inhibition,Z score
COc1ccccc1NC(=O)c1ccc(-c2noc(C3CCCC3)n2)cc1,-8%,1.43
CCN(C(=O)c1nnn(Cc2cc(C)no2)c1C)[C@@H](C)C(F)(F)F,-3%,0.56
Cc1cc2ncn(-c3cc(C(=O)O)cc(S(=O)(=O)N4CCOCC4)c3)c2cc1C,-1%,0.17
CC[C@@](C)(C(=O)NC1CCCC1)N(C(C)=O)c1ccc(C)cc1,-4%,0.81
Cc1cccc(Cn2c(=O)c(C(=O)NCc3ccccn3)nn(-c3cccc(F)c3)c2=O)c1,-2%,0.21
c1cc(OCCO[C@@H]2CCCCO2)cc(-n2ccnn2)c1,-9%,0.92
CCc1c[nH]c2ncnc(NCc3cccc(CO)n3)c12,-8%,1.3
COc1c(C)cnc(CN2CC[C@]3(CCCO3)CCC2=O)c1C,-15%,1.86
C[C@H]1Cc2cc(-n3ccnc3-c3cc4n(n3)CCCNC4)ccc2O1,0%,0.07
COC(=O)c1nc(NC(=O)c2cccnc2)sc1-c1ccccc1Cl,-10%,1.44
CS(=O)(=O)c1ccc(C2(c3nc([C@H]4CCOC4)no3)CCC2)cc1,-8%,1.29
Cc1cc(C#N)nc(N2CC(C)(C)OC[C@@H]2C)n1,-8%,1.47
O=C(O)C1C2C=CC(C2)C1C(=O)N1CCN(c2cccc(Cl)c2)CC1 (configuration not stated),4%,-0.51
CN(Cc1nnc2n1CCC2)C(=O)C1=Cc2ccccc2OC1,-45%,5.33
O=C(NCc1cccc(C(F)(F)F)c1)c1cc2n(n1)CCN(Cc1ccc(C(F)(F)F)cc1)C2=O,-8%,1.34
COc1ccc2cc(C(=O)N3CCC(CC(=O)NCC[C@H](C)N4CCCC4)CC3)[nH]c2c1,-18%,1.69
Cn1c(=O)[nH]c(=O)c2c1nc(N1CCN(CC=Cc3ccccc3)CC1)n2Cc1cccc(Cl)c1,-4%,0.78
CN1N=C(C(=O)N2CCC[C@H](Nc3ccc4c(c3)OCCO4)C2)CCC1=O,-12%,2.17
CCN(CC(N)=O)c1nc(C(C)C)nc(N(C)C)n1,14%,-1.84
Cc1nn(-c2ccccc2)c2sc(-c3noc(-c4ccccc4)n3)cc12,10%,-1.2
FC(F)(F)c1ccc(N2CCCN(Cc3nc4ccccc4o3)CC2)nc1,-8%,0.8

SMILES,% Inhibition,Z score
CC(C)(C)c1cc([C@H](c2ccc(Cl)cc2)N2CCCCC2)cc(C(C)(C)C)c1O,31%,-0.27
C=CCC[C@@H](CN(C)CC(=O)N(C)C)Oc1nccc(N(C)CC)n1,-7%,0.77
O[C@@H]1COCCN(Cc2ccccc2F)C1,-8%,1.53
Cc1ccc(CN2CCCN(c3ncnc4c3cnn4C)CC2)cc1,-8%,1.19
CN1C[C@@H]2CN(C(=O)CCc3ccccc3)CCN2C(C)(C)C1,32%,-3.63
Cc1nn2c3c(c(C(=O)O)nc2c1-c1ccccc1)CCO3,-16%,1.49
O=S(=O)(CCC(F)(F)F)N1C2CCC1CC(n1cccn1)C2 (configuration not stated),-15%,1.9
COC(=O)[C@H]1CCn2c(CCC3CCCCC3)nnc2C1,-4%,0.61
CCN(Cc1ccc(N(C)C)cc1)C(=O)c1cnn(-c2ccc(=O)[nH]n2)c1C,0%,0.02
O=C(c1ccc2cn[nH]c2c1)N1CCN(c2cccc(Cl)c2)CC1,-9%,0.91
COc1ccc(Nc2ncnc3c(-c4ccc(C)cc4)noc23)c(OC)c1,-4%,0.6
Cc1cc(=O)[nH]c(N2CCC[C@H](NS(=O)(=O)CC3CCC3)C2)n1,19%,-2.36
Cc1cnccc1CN(C)C(=O)c1cccc(S(=O)(=O)N2CC(O)C2)c1,-6%,1.15
Nc1sc(Cc2cccc(Cl)c2)c[n+]1CC(=O)c1ccc(F)cc1,27%,-3.07
C[C@@H](c1cccc(C(F)(F)F)c1)S(=O)(=O)Cc1cnn(C(C)(C)C)c1,-28%,3.31
CCc1ccc(CN(C)C[C@H](C)n2cncn2)nc1,-14%,1.89
CNC(=O)Nc1cccc(NC(=O)NC)n1,-7%,0.78
Cc1ccc(F)c(N2CCC(NC(=O)c3nn(-c4ccccc4)c(C)cc3=O)CC2)c1,-2%,0.27
O=C(CCc1ccc2c(c1)OCCO2)Nc1cccc(C(=O)NC2CC2)c1,-7%,0.95
CCC(=O)[C@@H]1CCCCN1C(=O)c1ccn2ccnc2c1,-12%,1.63
